# ChEMBL document CHEMBL4888484, “Replenishing the malaria drug discovery pipeline: Screening and hit evaluation of the MMV Hit Generation Library 1 (HGL1) against asexual blood stage Plasmodium falciparum ,using a nano luciferase reporter read-out” (2022)
# Out of some 150,000 compounds screened, about 540 (0.36%) showed an effect of 50% or more. The list shows a part of the results.
# Tested on: Plasmodium falciparum
# Assay: Primary screen in NF54 nanoGlo assay, in single point, at 2uM, 72h; a lower Z score goes with more inhibition
# Type: functional, Erythrocyte
# Settings: timepoint 72 hour
SMILES,% Inhibition,Z score
Cc1cnc(C(C)(C)NC2CCOC2C)s1 (configuration not stated),-5%,0.73
COc1ccc(N2C[C@@]34C=C[C@@H](O3)C(C(=O)NCc3ccncc3)[C@H]4C2=O)cc1 (some centres not stated),5%,-0.57
Cc1cccc(N(C)C(=O)c2ccc(-c3cccc(Br)c3)n2C)n1,-5%,0.59
O=C(CCc1nnc2ccc(N3CCOCC3)nn12)NC1CCCC1,-22%,2.1
COc1cc2c(cc1CNC(=O)c1nn(C)c3c1CCCC3)OCCO2,-19%,3.66
CCN(Cc1nonc1C)C(=O)c1cc(C)n(C(F)F)n1,7%,-0.87
Cc1cc(C)cc(CNC(=O)N(C)CC2(CO)CCOCC2)c1,0%,-0.06
CS(=O)(=O)N1CCN(C(=O)c2coc(NC(=O)c3ccccc3)n2)CC1,-5%,0.77
Cc1n[nH]c(C)c1S(=O)(=O)Nc1cccc2c1CCCC2,3%,-0.5
O=C(NCc1cccnc1Oc1ccc(F)cc1F)[C@H]1CCCNCC1,7%,-1.29
Cc1ccc(CN(Cc2ccc3c(c2)OCO3)CC(C)(C)O)o1,-10%,1.48
Cc1ccc(CC(=O)Nc2ccc(N3C(=O)CC[C@@H]3C)cc2)cc1F,0%,0.06
CC(CC(=O)O)C1CCCN(C(=O)OC(C)(C)C)C1 (configuration not stated),-3%,0.53
COc1ccc2cc3n(c2c1)C[C@@](C)(C(=O)NC1CCCC1)N(c1ccc(Cl)cc1)C3=O,2%,-0.33
Cc1ccc(C(=O)N(CCC#N)C2CCOCC2)cc1Cl,-13%,1.71
O=C(NC1CCCCC1)c1cscn1,-7%,0.92
CN1C[C@H](c2nc(C3CC3)no2)C2(CCN(C(=O)c3ccc4c(c3)OCO4)CC2)C1,-7%,0.86
CC(NC1CCCC(C2CC2)C1)c1cnccn1 (configuration not stated),-6%,0.79
Cc1cc(C(=O)NCc2cccc(CN(C)C)c2)c2nc3n(c2n1)CCCCC3,-5%,0.56
CC1CN(S(=O)(=O)c2cccc(C(=O)NC3(C)CCS(=O)(=O)C3)c2)CC(C)O1 (configuration not stated),-6%,1.02
Cc1cc(CS(=O)(=O)[C@@H](C)C(=O)NC(C)C)no1,24%,-3.12
O=C(CNC1(c2noc(C3CC3)n2)CCCC1)NCCc1cccs1,-14%,1.51

SMILES,% Inhibition,Z score
CCN1C(=O)NC(C)(C2CCCN(Cc3nnnn3C3CC3)C2)C1=O (configuration not stated),7%,-0.85
Cc1cc(C)cc(OCC(=O)N2CCN(S(=O)(=O)c3ccc4ccccc4c3)CC2)c1,-8%,1.32
C[C@H]1CN(S(=O)(=O)C[C@]23CC[C@H](CC2=O)C3(C)C)CC(=O)N1,-30%,2.63
CN(C)c1nc2c(s1)CN(c1nccn3cnnc13)CC2,-12%,1.38
O=C(Nc1cc[nH]n1)c1ccc2c(c1)OCCO2,-7%,1.02
COCCN(CCC(=O)O)C(=O)CCCc1ccccc1,-2%,0.28
Cc1[nH]ncc1CCCNc1ccc(F)cn1,-2%,0.3
COc1ccc(CN2CC[C@H](CNC(=O)c3cnc[nH]3)C2)cc1C,-3%,0.37
CCCCn1ccnc1[C@](O)(CC(C)=O)C(F)(F)F,1%,-0.19
CC(=O)N1CC(C(=O)N(Cc2ccc(C)o2)c2ccc(F)cc2)C1,1%,-0.18
CCNC(=O)[C@H](C)NC(=O)c1csc2c1CCN(Cc1c(C)noc1C)C2,-11%,1.23
CCCCn1nc(CC(N)=O)nc1[C@H]1CCC(=O)N(C2CCCC2)C1,-5%,0.59
COc1ccc(OCc2nc(C(=O)N3CC4(C)CN(C)CC(C)(C3)C4)co2)cc1,4%,-0.83
CCn1cc(CN2CCn3c(Cc4ccccc4)nnc3C2)c(C)n1,-4%,0.7
C[C@]1(c2cccnc2)NC(=O)N(CCc2ccccc2Cl)C1=O,-12%,0.98
Cc1nn(CCOc2ccccc2)c(=O)n1-c1ccc(Oc2ccccc2)cc1,3%,-0.42
O=C(c1ncn2c1CO[C@H](c1ccccc1)C2)N1CCC(C(=O)N2CCOCC2)CC1,-16%,1.83
CC(O)(C(=O)NC[C@@H]1CCC[C@H]1O)C1CC1 (some centres not stated),-21%,3.82
O=C(Nc1cc(F)cc(F)c1F)N[C@H]1CCOC1,-5%,1.08
Cc1nc([C@H](C)Nc2nc(-c3ccc(Cl)cc3)nc3c2CNC3)n[nH]1,-5%,0.67
O=C(Cn1ccc(=O)n2nccc12)Nc1ccc(Cl)c(Cl)c1,-1%,0.12
O=C(Cc1csc2ccccc12)NCc1cccs1,-9%,1.34

SMILES,% Inhibition,Z score
O=C(NCCn1ccc2ccoc2c1=O)c1ccccc1Cl,-6%,1.06
CN1CCCN(C(=O)CCn2ccc3ccccc32)CC1,11%,-1.33
O=C(CN1C(=O)CCC1=O)N1CCN(C(=O)c2cc3c(s2)CCCCCC3)CC1,-17%,1.52
O=c1c(Nc2ccc(OCC3CC3)cc2)nccn1C1CC1,8%,-1.3
CC(=O)N[C@@H]1C[C@H](Cc2ccccc2)O[C@H](c2cccc3cnccc23)C1,-15%,1.66
CCC1CN2CCCC2CN1C(=O)NCCc1cccc(C#N)c1 (configuration not stated),-16%,1.84
Cc1noc(C)c1C(=O)N[C@@H](C)Cc1cc2ccccc2o1,-6%,1.05
CCc1cc(-c2nc([C@H](NC(=O)OC(C)(C)C)c3ccccc3OC)no2)n[nH]1,0%,-0.05
Cc1n[nH]c(C)c1CNC(=O)c1coc(COc2cccc(C(F)(F)F)c2)n1,5%,-0.73
CN1C(=O)NCC12CCN(Cc1ccccc1F)CC2,9%,-1.14
CC1(C)CC(S(=O)(=O)NC2COc3ccc4ccccc4c3C2)CO1 (configuration not stated),-8%,0.81
Cc1c(CN(C)C(=O)CCN2CCCCO2)[nH]c2ccccc12,4%,-0.55
Cn1c(CN2CCCC2)nnc1C1CCN(C2Cc3ccccc3C2)CC1,-4%,0.72
O=C(Nc1ccccc1C(=O)O)c1cccc(-n2cccn2)n1,-5%,0.73
O=C(COc1ccc2c(c1)OCO2)N(Cc1ccccc1)[C@H]1CCS(=O)(=O)C1,8%,-1
CC[C@H]1COCCN1Cc1ccc(CN2CCCC2)s1,2%,-0.34
CCCCN(C)C(=O)c1csc(-c2ccc(N3CCCC3)nc2)n1,-23%,2.71
O=C(N[C@H]1CCCNC1=O)c1coc(COc2ccc(F)cc2Cl)n1,-28%,2.6
O=C(NCc1cccc(Cl)c1)c1ccc(Oc2nccnc2N2CCOCC2)cc1,-8%,0.98
O=C(NC1CC1)c1cccc(NC(=O)c2nccnc2-c2nc3ccccc3s2)c1,-18%,1.8
COc1cc(CCC(=O)N2CCCCc3cc(Cl)ccc32)on1,6%,-0.57
O=C(NCc1ccncc1)c1cncc(Br)c1,-12%,1

SMILES,% Inhibition,Z score
COC(=O)c1cc(CNc2ccc(Cl)cn2)c[nH]1,6%,-0.74
COCCNC(=O)c1coc(CN(Cc2cc(OC)ccc2OC)[C@@H](C)c2ccccc2)n1,-9%,1.86
CC(=O)NC(C(=O)N1CC(c2ccsc2)CC1C)C(C)C (configuration not stated),-9%,1.31
Cn1nccc1CN1CCc2nc(C(C)(C)C)ncc2C1,28%,-3.61
Cn1ncnc1CN1CCC[C@@]1(c1c[nH]c2ccccc12)C(F)(F)F,-2%,0.35
Cc1nn(CCO)cc1CN1CCN(C)C[C@@H]1c1ccccc1,6%,-1.1
COc1cccc(N2CCN(C(=O)c3n[nH]c(N)c3Cl)CC2(C)C)c1,-1%,0.11
C[C@@H](c1ccc2c(c1)OCCO2)N(C)C(=O)NCc1n[nH]c2c1CCC2,-1%,0.09
CC1(C)[C@@H](O)[C@H]2CCCN(C(=O)Nc3ccc(-c4ccon4)cc3)[C@H]21,1%,-0.2
CC(C)c1nsc(NCc2nnc3n2CC[C@H](C(F)(F)F)C3)n1,-15%,1.64
O=C(Cc1ccccc1)N1CC[C@H]2[C@H](CCCN2Cc2ccccn2)C1,-10%,1.32
CCc1nn(Cc2csc3cncn23)c(=O)c(C#N)c1CC,-4%,0.74
O=C(Cc1ccco1)Nc1ccccc1F,-8%,0.89
O=C(NC1CCCC1)N1CC[C@H](OCc2ccccc2)C1,-9%,1.39
O=C1NC2(CCN(C(=O)Cc3ccccc3)CC2)Nc2c(Cl)cccc21,-11%,1.35
CC(CNc1ccccc1)NC(=O)C(C)CS(C)(=O)=O (configuration not stated),-15%,1.89
CS(=O)(=O)N1CC(C(=O)Nc2cc(C(F)(F)F)n[nH]2)C1,-2%,0.43
COc1cnc(C(=O)N2CC3(CCCC3)[C@@H]2C(C)C)nc1,0%,0
COCCC[C@H]1CCCCN1c1nc2c(s1)c(C)nn2C,-19%,2.54
COc1ccc(-c2n[nH]c(=O)c(Cc3ccccc3)n2)cc1,-3%,0.5
